In the supplement of paper PMC4967469:
Lines with a small IC50 respond at low doses; fits outside the tested doses are given as limits. AUC sums up the same curve from the lowest dose to the 256-fold higher top dose; values near 1 show little effect. For part of these data: A top dose marked as inferred is not printed in the source and was worked back from the curve model.

Columns and labels:
Experiment in all cases: Viability of human cancer cell lines after 72 h of drug (GDSC screen)
17-AAG = compound: C=CCNC1=C2C[C@@H](C)C[C@H](OC)[C@H](O)[C@@H](C)/C=C(\C)[C@H](OC(N)=O)[C@@H](OC)/C=C\C=C(/C)C(=O)NC(=CC1=O)C2=O [17-AAG]; details: top dose 1 µM
Experimental: (§1)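 Human cancer cell lines in 384-well plates, medium with 10% serum, drug for 72 h over a 256-fold dose range (nine 2-fold or five 4-fold steps up to the top dose). Adherent lines were fixed and stained with the nucleic acid dye Syto60, suspension lines read with resazurin; signal relative to control wells, capped at 0 and 100%. One two-parameter sigmoid per drug and line, fitted in a mixed model over all curves with the slope shared within a line.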

Doxorubicin = compound: COc1cccc2c1C(=O)c1c(O)c3c(c(O)c1C2=O)C[C@@](O)(C(=O)CO)C[C@@H]3O[C@H]1C[C@H](N)[C@H](O)[C@H](C)O1 [Doxorubicin]; details: top dose 1.024 µM
Experimental: as §1

BIX02189 = compound: CN(C)Cc1cccc(N=C(c2ccccc2)c2c(O)[nH]c3cc(C(=O)N(C)C)ccc23)c1 [BIX02189]; details: top dose 20 µM; top dose inferred
Experimental: as §1

CCT018159 = compound: CCc1cc(-c2n[nH]c(C)c2-c2ccc3c(c2)OCCO3)c(O)cc1O [CCT018159]; details: top dose 10 µM; top dose inferred
Experimental: as §1

OSI-027 = compound: COc1cccc2cc(-c3nc([C@H]4CC[C@H](C(=O)O)CC4)n4ncnc(N)c34)[nH]c12 [OSI-027]; details: top dose 20 µM
Experimental: as §1

TG101348 = compound: Cc1cnc(Nc2ccc(OCCN3CCCC3)cc2)nc1Nc1cccc(S(=O)(=O)NC(C)(C)C)c1 [TG101348]; details: top dose 10.24 µM
Experimental: as §1

VX-11e = compound: Cc1cnc(Nc2ccc(F)cc2Cl)nc1-c1c[nH]c(C(=O)N[C@H](CO)c2cccc(Cl)c2)c1 [VX-11e]; details: top dose 5.12 µM; top dose inferred
Experimental: as §1

Vismodegib = compound: CS(=O)(=O)c1ccc(C(=O)Nc2ccc(Cl)c(-c3ccccn3)c2)c(Cl)c1 [Vismodegib]; details: top dose 10 µM; top dose inferred
Experimental: as §1

Dimethyloxalylglycine = compound: COC(=O)CNC(=O)C(=O)OC [Dimethyloxalylglycine]; details: top dose 4000 µM; top dose inferred
Experimental: as §1

UNC1215 = compound: O=C(c1ccc(C(=O)N2CCC(N3CCCC3)CC2)c(Nc2ccccc2)c1)N1CCC(N2CCCC2)CC1 [UNC1215]; details: top dose 1 µM; top dose inferred
Experimental: as §1

Row | Cell Line | AUC (17-AAG) | IC50 (17-AAG) [µM] | AUC (Doxorubicin) | IC50 (Doxorubicin) [µM] | AUC (BIX02189) | IC50 (BIX02189) [µM] | AUC (CCT018159) | IC50 (CCT018159) [µM] | AUC (OSI-027) | IC50 (OSI-027) [µM] | AUC (TG101348) | IC50 (TG101348) [µM] | AUC (VX-11e) | IC50 (VX-11e) [µM] | AUC (Vismodegib) | IC50 (Vismodegib) [µM] | AUC (Dimethyloxalylglycine) | IC50 (Dimethyloxalylglycine) [µM] | AUC (UNC1215) | IC50 (UNC1215) [µM]
1 | MG-63 (osteosarcoma, adherent) | 0.912 | > 1 | 0.393 | 0.031 | 0.981 | > 20 | 0.878 | > 10 | 0.983 | > 20 | 0.984 | > 10.2 | 0.982 | > 5.12 | 0.94 | > 10 | 0.406 | 132 | – | –
2 | KYSE-140 (oesophagus, adherent) | 0.961 | > 1 | 0.459 | 0.0486 | 0.855 | 19.3 | 0.916 | > 10 | 0.477 | 1.07 | 0.785 | 5.02 | 0.857 | 5.08 | 0.977 | > 10 | 0.794 | 2120 | – | –
3 | MSTO-211H (mesothelioma, adherent) | 0.809 | 0.461 | 0.991 | > 1.02 | 0.991 | > 20 | 0.991 | > 10 | 0.856 | 13.8 | 0.958 | > 10.2 | 0.991 | > 5.12 | 0.991 | > 10 | 0.932 | > 4000 | – | –
4 | KYSE-410 (oesophagus, adherent) | 0.45 | 0.0452 | 0.56 | 0.0946 | 0.967 | > 20 | 0.911 | > 10 | 0.694 | 4.56 | 0.879 | > 10.2 | 0.958 | > 5.12 | 0.975 | > 10 | 0.191 | 27.7 | – | –
5 | JHU-011 (head and neck, adherent) | 0.33 | 0.0212 | 0.25 | 0.0124 | 0.955 | > 20 | 0.863 | 8.42 | 0.428 | 0.799 | 0.711 | 2.5 | 0.929 | > 5.12 | 0.961 | > 10 | 0.58 | 414 | – | –
6 | EHEB (lymphoid neoplasm, suspension) | 0.899 | > 1 | 0.582 | 0.118 | – | – | 0.897 | > 10 | – | – | – | – | – | – | 0.973 | > 10 | 0.52 | 290 | 0.962 | > 1
7 | FADU (head and neck, adherent) | 0.263 | 0.0136 | 0.597 | 0.117 | 0.98 | > 20 | 0.745 | 3.04 | 0.925 | > 20 | 0.932 | > 10.2 | 0.984 | > 5.12 | 0.988 | > 10 | 0.387 | 124 | – | –
8 | HuP-T4 (pancreas, adherent) | 0.675 | 0.199 | 0.487 | 0.059 | 0.925 | > 20 | 0.969 | > 10 | 0.49 | 1.17 | 0.791 | 4.91 | 0.716 | 1.36 | 0.984 | > 10 | 0.402 | 133 | – | –
9 | Ramos-2G6-4C10 (Burkitt lymphoma, suspension) | 0.99 | > 1 | 0.756 | 0.305 | 0.88 | 15.5 | 0.933 | > 10 | – | – | 0.852 | 6.23 | 0.97 | > 5.12 | 0.857 | 6.33 | 0.412 | 149 | 0.98 | > 1
10 | DAN-G (pancreas, adherent) | 0.783 | 0.365 | 0.974 | > 1.02 | 0.987 | > 20 | 0.974 | > 10 | 0.703 | 4.28 | 0.951 | > 10.2 | 0.983 | > 5.12 | 0.991 | > 10 | 0.991 | > 4000 | – | –
11 | NCI-H2052 (mesothelioma, adherent) | 0.846 | > 1 | 0.635 | 0.168 | 0.969 | > 20 | 0.96 | > 10 | 0.939 | > 20 | 0.855 | > 10.2 | 0.969 | > 5.12 | 0.983 | > 10 | 0.658 | 779 | – | –
12 | GCIY (stomach, adherent) | 0.863 | > 1 | 0.832 | 0.773 | 0.967 | > 20 | 0.9 | > 10 | 0.264 | 0.239 | 0.834 | 7.91 | 0.967 | > 5.12 | 0.983 | > 10 | 0.389 | 119 | – | –
13 | MOLM-13 (acute myeloid leukaemia, suspension) | 0.871 | 0.844 | 0.471 | 0.0538 | 0.404 | 0.693 | 0.804 | 4.64 | 0.178 | 0.146 | – | – | 0.735 | 1.42 | 0.976 | > 10 | 0.342 | 93.7 | 0.974 | > 1
14 | SUP-B15 (lymphoblastic leukaemia, suspension) | 0.982 | > 1 | 0.182 | 0.00748 | 0.858 | 15.4 | 0.968 | > 10 | 0.067 | < 0.0781 | 0.586 | 1.09 | 0.869 | 4.38 | 0.937 | > 10 | 0.178 | 28.3 | – | –
